Assay results from the antibiotic and cytotoxicity screens of Wong et al. (2023).
Some of the results follow.

test system: HepG2; assay: cytotoxicity call (relative viability < 0.9); settings: 10 µM

Q: For `Cc1noc(C)c1S(=O)(=O)Nc1cccc2c1O[C@H](CN(C)C(=O)NC(C)C)[C@H](C)CN([C@H](C)CO)C2=O`, which cytotoxicity call is on record?
A: inactive

Q: Which cytotoxicity call does the source give for `COc1ccc(NC(=O)N(C)C[C@H]2OCCCC[C@@H](C)Oc3ccc(NS(=O)(=O)c4ccc(OC)cc4)cc3C(=O)N([C@H](C)CO)C[C@@H]2C)cc1` here?
A: inactive

Q: Which cytotoxicity call does the source give for `Cc1cc(C(=O)Nc2cccc3c2O[C@H](CN(C)C(=O)Nc2ccc4c(c2)OCO4)[C@@H](C)CN([C@@H](C)CO)C3=O)n(C)n1` here?
A: inactive

Q: For `C[C@H](CO)N1C[C@H](C)[C@H](CN(C)Cc2ccc3c(c2)OCO3)Oc2ccc(NC(=O)CCCN(C)C)cc2C1=O`, which cytotoxicity call is on record?
A: inactive

Q: For `C[C@H](CO)N1C[C@H](C)[C@H](CN(C)Cc2ccc3c(c2)OCO3)OCCCC[C@H](C)Oc2ccc(NC(=O)Nc3ccc4c(c3)OCO4)cc2C1=O`, which cytotoxicity call is on record?
A: active

Q: For `Cc1cccc(Nc2ccncc2S(=O)(=O)NC(=O)NC(C)C)c1`, which cytotoxicity call is on record?
A: inactive

Q: With `CC(C)NC(=O)N(C)C[C@H]1Oc2cc(C#Cc3ccccn3)ccc2S(=O)(=O)N([C@@H](C)CO)C[C@H]1C` as the molecule, how does the cytotoxicity call read?
A: inactive

Q: With `C[C@@H]1CN([C@H](C)CO)C(=O)Cc2cc(NC(=O)C3CC3)ccc2O[C@H]1CN(C)S(=O)(=O)c1ccc(F)cc1` as the molecule, how does the cytotoxicity call read?
A: inactive

Q: `C[C@@H]1COC(=O)[C@@H](NC(=O)OCC2c3ccccc3-c3ccccc32)CC=CC[C@H](CC(=O)NCCO)C(=O)N1` was tested. Which cytotoxicity call did it give?
A: inactive

Q: With `O=C(O)C[C@@H]1CC[C@@H]2[C@H](COC[C@@H](O)CN2S(=O)(=O)c2ccc(F)cc2)O1` as the molecule, how does the cytotoxicity call read?
A: inactive

Q: How did the cytotoxicity call turn out when `C[C@H](CO)N1C[C@H](C)[C@H](CN(C)S(=O)(=O)c2cccc(F)c2)Oc2cc(C#CCN(C)C)ccc2S1(=O)=O` was run?
A: inactive

Q: For `COc1ccc([C@@H]2CC=CC[C@H](C)Oc3ccccc3C(=O)N(C)[C@H](Cc3ccccc3)C(=O)N2)c(OC)c1`, which cytotoxicity call is on record?
A: inactive

Q: For `C[C@@H]1CN([C@H](C)CO)C(=O)c2cc(NC(=O)c3ccccc3)ccc2O[C@@H](C)CCCCO[C@@H]1CN(C)CC1CCCCC1`, which cytotoxicity call is on record?
A: inactive

Q: `COc1ccc(CN(C)C[C@@H]2OCCCC[C@@H](C)Oc3ccc(NC(=O)NC(C)C)cc3C(=O)N([C@@H](C)CO)C[C@H]2C)cc1` was tested. Which cytotoxicity call did it give?
A: inactive

Q: How did the cytotoxicity call turn out when `O=C(C[C@@H]1C[C@@H]2c3cc(NC(=O)NC4CCCC4)ccc3O[C@@H]2[C@H](CO)O1)NCCN1CCCCC1` was run?
A: inactive

Q: How did the cytotoxicity call turn out when `O=C([C@H]1[C@H](CO)[C@H]2Cn3c(cccc3=O)[C@@H]1N2CC1CCCC1)N1CCOCC1` was run?
A: inactive

Q: `NNC(=O)COc1ccccc1` was tested. Which cytotoxicity call did it give?
A: inactive

Q: `O=C(Nc1cccc2cccnc12)[C@@H]1[C@H](c2ccc3ccccc3c2)CC(=O)N1C(=O)OCc1ccccc1` was tested. Which cytotoxicity call did it give?
A: inactive

Q: Which cytotoxicity call does the source give for `C[C@H]1CN([C@@H](C)CO)S(=O)(=O)c2ccc(C#CC3(O)CCCC3)cc2O[C@@H]1CN(C)C(=O)Nc1ccc(F)cc1` here?
A: inactive

Q: For `C[C@@H]1CN([C@H](C)CO)C(=O)Cc2cc(NC(=O)Nc3ccc(C(F)(F)F)cc3)ccc2O[C@H]1CN(C)C(=O)Nc1ccccc1`, which cytotoxicity call is on record?
A: inactive

Q: With `COc1ccc(S(=O)(=O)N[C@H]2CC[C@H](CCNC(=O)CN3CCOCC3)O[C@@H]2CO)cc1` as the molecule, how does the cytotoxicity call read?
A: inactive

Q: For `C[C@@H]1CN([C@@H](C)CO)C(=O)c2cc(NS(=O)(=O)c3cn(C)cn3)ccc2O[C@H]1CN(C)S(=O)(=O)c1ccccc1`, which cytotoxicity call is on record?
A: inactive

Q: For `C[C@@H]1CN([C@@H](C)CO)C(=O)Cc2cc(NC(=O)Cn3cnnn3)ccc2O[C@H]1CN(C)CC1CCCCC1`, which cytotoxicity call is on record?
A: inactive

Q: For `COC(=O)[C@@H](N)c1cccc(Cl)c1`, which cytotoxicity call is on record?
A: inactive

Q: With `COc1ccc(C#Cc2cnc3c(c2)C(=O)N([C@H](C)CO)C[C@H](C)[C@@H](CN(C)CC2CCOCC2)O3)cc1` as the molecule, how does the cytotoxicity call read?
A: inactive

Q: For `C[C@@H]1CN([C@H](C)CO)C(=O)c2cc(NS(=O)(=O)c3cn(C)cn3)ccc2O[C@@H](C)CCCCO[C@H]1CN(C)C(=O)Nc1ccc(C(F)(F)F)cc1`, which cytotoxicity call is on record?
A: inactive

Q: `COC(=O)CNC(=O)c1ccc(S(=O)(=O)N2CCOCC2)cc1` was tested. Which cytotoxicity call did it give?
A: inactive

Q: Which cytotoxicity call does the source give for `CCC(=O)N(C)C[C@H]1Oc2ncc(C#C[C@@H](C)O)cc2C(=O)N([C@@H](C)CO)C[C@H]1C` here?
A: inactive

Q: Which cytotoxicity call does the source give for `COCCNC(=O)C[C@@H]1C[C@H]2c3cc(NS(C)(=O)=O)ccc3O[C@H]2[C@@H](CO)O1` here?
A: inactive

Q: How did the cytotoxicity call turn out when `Cc1noc(C)c1NC(=O)Nc1ccc2c(c1)C(=O)N([C@H](C)CO)C[C@H](C)[C@@H](CN(C)Cc1ccncc1)OCCCC[C@@H](C)O2` was run?
A: inactive

Q: For `Nc1ncnc2c1ncn2[C@@H]1O[C@H](CO)C[C@H]1O`, which cytotoxicity call is on record?
A: inactive

Q: `CN(C)CCCNC(=O)C[C@@H]1CC[C@@H]2[C@H](COC[C@@H](O)CN2C(=O)Nc2cc(Cl)cc(Cl)c2)O1` was tested. Which cytotoxicity call did it give?
A: inactive

Q: Which cytotoxicity call does the source give for `C[C@@H]1CCCCO[C@@H](CN(C)S(=O)(=O)c2ccc(Cl)cc2)[C@H](C)CN([C@@H](C)CO)C(=O)c2cc(NC(=O)Nc3ccccc3)ccc2O1` here?
A: inactive

Q: For `O=C1CNc2cc(C(=O)O)ccc2N1`, which cytotoxicity call is on record?
A: inactive

Q: `C[C@@H]1CCCCO[C@@H](CN(C)CC2CCCCC2)[C@H](C)CN([C@H](C)CO)C(=O)c2cc(NS(=O)(=O)c3ccc(F)cc3)ccc2O1` was tested. Which cytotoxicity call did it give?
A: inactive

Q: For `CCC(=O)n1ccc(C(=O)N2CCOCC2)n1`, which cytotoxicity call is on record?
A: inactive

Q: `C[C@H](CO)N1C[C@H](C)[C@@H](CN(C)Cc2ccc(Oc3ccccc3)cc2)Oc2c(NS(=O)(=O)c3ccccc3)cccc2C1=O` was tested. Which cytotoxicity call did it give?
A: inactive

Q: Which cytotoxicity call does the source give for `O=C(Cc1ccccn1)NCC[C@H]1CC[C@@H](NC(=O)CN2CCOCC2)[C@H](CO)O1` here?
A: inactive

Q: Which cytotoxicity call does the source give for `C[C@@H]1CCCCO[C@H](CN(C)Cc2ccccc2)[C@H](C)CN([C@H](C)CO)C(=O)c2cc(NS(=O)(=O)c3ccc(F)cc3)ccc2O1` here?
A: inactive

Q: `Cc1noc(C)c1S(=O)(=O)N(C)C[C@@H]1OCc2cn(nn2)CCCC(=O)N([C@H](C)CO)C[C@@H]1C` was tested. Which cytotoxicity call did it give?
A: inactive
